The text below walks through data of PubChem BioAssay AID463173 (ICCB-Longwood Screening Facility, Harvard Medical School, 2010).

Each structure is given as a SMILES string. Out of some 52,000 compounds screened, about 1,700 (3.3%) were called active. Rule as the data show it: active = survival mostly below about 52% (no sharp cut-off); inactive = mostly above about 56%. Some of the results follow.

This experiment has as its system Wild type. The experiment in a line: growth inhibition of S. aureus wild type versus tarO mutant, primary screen, teichoic acid synthesis inhibitors, RN4220, OD600 (AID 463173). The following applies: S. aureus RN4220 wild type/DeltatarO growth, OD600, 18 h, stronger effect = lower value, screened at 18.75 µg/mL (by protocol).
With `CN(C)CCCNc1ncnc2ccc(Br)cc12`, the survival is inactive: 100%.

`COc1ccccc1NC(=O)c1nnn(-c2ccc(F)cc2)c1C`: the survival is inactive: 65%. Turning to `Cc1cc(F)ccc1NC(=O)C(C(C)C)N1Cc2ccccc2C1=O` (stereo not drawn), the survival is inactive: 120%. Take `CC(=O)Nc1ccc(S(=O)(=O)NC2=NCN(C(C)C)CN2)cc1`: the survival was inactive: 143%. With `COc1ccc(C(=O)N2CC(=O)Nc3ccc(C)cc3C2c2ccc(F)cc2)c(OC)c1` (stereo not drawn), the survival was inactive: 143%. To `O=c1c(-c2cc(-c3ccc(Cl)cc3)nc3c2COc2ccccc2-3)coc2ccccc12` belongs inactive: 102%. Regarding `CN(CC(=O)NCc1ccccc1Cl)S(=O)(=O)c1ccc2c(c1)c(=O)n(C)c(=O)n2C`, the survival was inactive: 122%. As for `Cc1ccc(Cl)cc1N1CCN(C(=O)Cc2c(C(=O)O)c(C)cn2C)CC1`, the figure is inactive: 55%. As to `Cc1sc2ncn(CC(=O)N3CCN(c4ccccc4F)CC3)c(=O)c2c1S(=O)(=O)N1CCN(c2ncccn2)CC1`, the survival is inactive: 95%. With `CC(C)CC(NC(N)=O)C(=O)O` (stereo not drawn), the survival was inactive: 101%.

On to `CCC(=O)N1CCc2cc(Br)cc(S(=O)(=O)CCC(=O)NCCc3ccc(C)cc3)c21`, for which the survival was inactive: 130%. Regarding `CCc1ccc(CNC(=O)c2cnc(N3CCCCC3)c3ccccc23)cc1`, the survival was inactive: 69%.

With `COc1ccc(S(=O)(=O)Nc2cccc(-c3ccc(N4CCCCCC4)nn3)c2)cc1F`, the survival is inactive: 71%. As for `COc1ccc(CCNC(=O)C(=O)Nc2ccc(C)c(C)c2)cc1`, the figure is inactive: 75%. `Cc1cccc2cc(CN(C(=O)c3ccncc3)C3CCCC3)c3nnnn3c12`: the survival was inactive: 88%. Consider `O=C(CSc1nc2c(c(=O)[nH]1)CCCC2)Nc1ccccc1C(F)(F)F`, for which the survival is inactive: 80%. On to `CC(C)c1ccc(S(=O)(=O)c2cn(CC(=O)Nc3ccc(F)cc3)c3ccccc3c2=O)cc1`, for which the survival was inactive: 55%. Turning to `CC1CCN(S(=O)(=O)c2cc(C(=O)NCc3ccc(N(C)C)cc3)n(C)c2)CC1`, the survival is inactive: 78%.

Take `O=C(Nc1cccc(C(F)(F)F)c1)c1cccs1`: the survival was inactive: 116%.

On to `O=C(CN1C(=O)CC(c2ccco2)Sc2ccccc21)Nc1cccc(C(F)(F)F)c1` (stereo not drawn), for which the survival was inactive: 106%. As to `CCOc1ccc(NC(=O)Cn2c(=O)cc(C)c3c(C)nn(C)c32)cc1`, the survival is inactive: 71%. Consider `Cc1ccc(NC(=O)CCN2CC(C)CC(C)C2)cc1` (stereo not drawn), for which the survival was inactive: 93%.

Take `Cc1ccccc1CN1c2ccccc2-c2nc(SCC(=O)c3ccc(Cl)cc3)ncc2S1(=O)=O`: the survival is inactive: 71%. Consider `Cc1csc2nc(-c3cccc(NS(C)(=O)=O)c3)cn12`, for which the survival is inactive: 85%. Turning to `COCCCNC(=O)CCCN1C(=O)CCn2nc(-c3cccn3C)cc21`, the survival is inactive: 99%. Take `CCc1ccccc1NC(=O)Cn1c(=O)n(Cc2ccccc2)c(=O)c2c(C)c(C(=O)N(C)C)sc21`: the survival was inactive: 60%.

For the compound `CC(=O)NC1(NC(C)=O)CC(c2ccccc2)N(C)CC1C` (stereo not drawn), the survival is inactive: 100%.

With `Cc1csc2nc(-c3ccc(NS(=O)(=O)c4cccc(F)c4)cc3)cn12`, the survival is inactive: 72%. As for `Cc1ccc(-c2nc(C)c(CCNC(=O)C(=O)Nc3cc(C)ccc3C)s2)cc1`, the figure is inactive: 57%. To `CCOC(=O)c1c(NC(=S)NC(=O)c2c(I)cnn2C)sc2c1CCC(C)C2` (stereo not drawn) belongs inactive: 106%; to `CCCOc1ccc(C2=NC(c3ccncc3)=Nc3ccc(C)cc3N2)cc1`, inactive: 56%. For `Cc1ccc(-c2n[nH]c3c2C(c2ccccc2Cl)N(c2ccc(C(=O)O)cc2)C3=O)cc1` (stereo not drawn), the survival is inactive: 84%. As to `Cc1ccc(N2C(=O)SC(N(CC(=O)O)c3ccccc3)C2=O)cc1` (stereo not drawn), the survival is inactive: 112%. On to `Cc1oc2ccc(NS(=O)(=O)c3ccc(F)cc3)cc2c1C(=O)O`, for which the survival is inactive: 146%. Take `Cc1ccccc1CNC(=O)c1ccc(NC(=O)N2CCCCc3ccccc32)cc1`: the survival is inactive: 66%. Regarding `COc1cc(CNCCSc2nnnn2C)ccc1OCc1ccccc1C`, the survival is inactive: 68%. As for `Cc1c(CN(C)C(=O)c2cc(-c3ccccc3)nc3ccc(Br)cc23)cnn1C`, the survival was inactive: 66%. Turning to `Cc1ccccc1-c1noc(-c2ccc(N3CCC(C)CC3)c([N+](=O)[O-])c2)n1`, the survival is inactive: 84%.

For the compound `CNc1nc(C)c(C(=O)OCC(=O)OC)s1`, the survival is inactive: 113%. For the compound `CSc1ncc(Cl)c(C(=O)Nc2c(C(=O)Nc3cccc(C)c3)oc3ccccc23)n1`, the survival is inactive: 89%. Take `Cc1ccc(S(=O)(=O)c2c(Nc3ccc(C)c(C)c3)sc(C(=O)c3ccc4c(c3)OCO4)c2N)cc1`: the survival was inactive: 140%.

Turning to `O=C1c2ccccc2C(=O)N1CCN1C(=O)c2ccccc2C1=O`, the survival was inactive: 110%.

On to `O=C(Nc1c(C(=O)c2ccccc2)oc2ccccc12)c1ccc(F)cc1`, for which the survival was inactive: 66%.

As for `CCOc1ccc(C(=O)Nc2ccc3oc(-c4cccc5ccccc45)nc3c2)cc1`, the survival is inactive: 73%. Take `O=C1CN(C(=O)c2ccc(S(=O)(=O)N3CCCC3)cc2)C(c2ccccc2)c2cc(Cl)ccc2N1` (stereo not drawn): the survival is inactive: 90%. Take `NNC(=O)c1nnn(-c2nonc2N)c1CN1CCCC1`: the survival is inactive: 103%.

Take `CC(C)c1nc2ccc(C(=O)NCCCN3CCN(c4ccccc4)CC3)cc2o1`: the survival was inactive: 128%. For the compound `O=C(CN1CCN(Cc2ccc(F)cc2Cl)C1=O)NCCc1ccc(Cl)cc1`, the survival was inactive: 69%. On to `Cc1cc(C)n(CC(=O)Nc2cc(F)ccc2F)c(=O)c1C#N`, for which the survival was inactive: 55%. As for `COc1ccc(C(=O)Nc2nc(-c3nnn(-c4ccc(F)cc4F)c3C)ns2)cc1`, the figure is inactive: 124%; as for `COc1cccc(C(=O)Nc2ccc3nc4n(c(=O)c3c2)CCCCC4)c1`, inactive: 73%.

Consider `Cc1ccc(O)c(Nc2nc3ccccc3c3nncn23)c1`, for which the survival is inactive: 87%. For `COc1ccc(OC)c(NC(=O)N2CC(C)Oc3ccc(C)cc32)c1` (stereo not drawn), the survival was inactive: 89%. Turning to `Cc1ccc(C(=O)c2cn(CC(=O)NCc3ccccc3)c3nc(C)ccc3c2=O)cc1`, the survival was inactive: 80%. Regarding `O=C1CS/C(=N\N=C/c2ccccc2)N1`, the survival was inactive: 110%.

As for `CCOc1ccc(-c2nc(C(N)=O)c3c(n2)n(-c2ccc4c(c2)OCO4)c(=O)n3CC)cc1`, the survival was inactive: 79%. On to `COc1ccc(Cl)cc1NC(=O)CSc1nnc2[nH]c(=O)cc(C)n12`, for which the survival was inactive: 97%. As to `Cc1ccc(CNC(=O)Cn2cc3c(n2)-c2c(oc(C(=O)N4CCOCC4)c2C)CC3)cc1`, the survival was inactive: 85%.
